Test results reported in PubChem BioAssay (NCATS).
The shares of active, inactive and inconclusive entries below differ from those in the screen. For some of these results: Potencies of inconclusive entries are left out as doubtful fits. Activity calls are given as the source filed them. Calls come from the whole dose curve; as a rule, active = well fitted curve in the direction sought with a large enough effect; inconclusive = small, poorly fitted or top-dose-only effect, or another doubt; inactive = no such curve, though single readings can be large; an effect the other way counts as inactive or inconclusive.

What follows are molecules tested on Zika virus NS2B-NS3 protease (unlinked) (assay: Optimization of GU AMC qHTS for Zika virus inhibitors: Unlinked NS2B-NS3 protease assay (AID 1347151; note: potency is the fitted concentration of half-maximal effect; nearly all actives have a fitted effect of over 80% in size)). Details: recombinant ZIKV NS2B-NS3 protease, fluorogenic AMC substrate; series mostly up to 52.5 µM.
Method in brief: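 Noncovalent complex of NS2B hydrophilic domain and NS3 protease domain, 25 nM final, in 10 mM Tris-HCl pH 8.0, 0.01% Tween 20. AMC fluorescence change over 15 min at room temperature was fitted to a 4-parameter Hill equation.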
Tags give direction and shape of the fitted curve.

Row | Structure (SMILES) | Potency
1 | Cn1ccc2cc3c(cc21)CCN3C(=O)Nc1cccnc1 | inconclusive [inhibitor, single point]
2 | O=C1c2ccccc2C(=O)c2c(NCCc3ccc(O)cc3)ccc(NCCc3ccc(O)cc3)c21 | inconclusive [inhibitor, full curve, poor fit]
3 | S=C(Nc1ccccc1)Nc1nccs1 | inconclusive [inhibitor, partial curve]
4 | Cc1[nH]c(=O)c(C#N)cc1-c1ccncc1 | inconclusive [inhibitor, partial curve]

Each molecule was assayed on Zika virus NS2B-NS3 protease (linked construct) (assay: Confirmatory screen NINDS AMC qHTS for Zika virus inhibitors (AID 1347152;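 note: AMC fluorescence gain from cleaved Bz-Nle-KRR-AMC substrate over 15 min; top concentration of the series differs between compounds; nearly all actives have a fitted effect of over 70% in size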)). Details: Purified linked NS2B-NS3, AMC substrate fluorescence; series mostly up to 56.6 µM.
Method in brief: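 Purified NS2B-NS3 protease with NS2B hydrophilic domain linked to NS3 protease domain by flexible linker, 1 nM final in 10 mM Tris-HCl pH 8.0, 0.01% Tween 20. Compounds preincubated 15 min, room temperature; Bz-Nle-KRR-AMC 10 microM (Km 18.3 µM); 15-min fluorescence change, 4-parameter Hill fit.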

Row | Structure (SMILES) | Potency
5 | Nc1ccc(-c2ccc3ccccc3n2)cc1 | inactive
6 | O=C1NC(=O)/C(=C/c2ccc(-c3ccc(F)cc3O)o2)S1 | inactive
7 | Cc1[nH]c(=O)c(C#N)cc1-c1ccncc1 | inactive
